This sample is rich in variants without activity.
B1: TPR 5TU (parent)
chain: GGAUCUUCUCGAUCUAACAAAAAAGACAAAUCUGCCACAAAGCUUGAGAGCAUCUUCGGAUGCAGAGGCGGCAGCCUUCGGUGGCGCGAUAGCGCCAACGUUCUCAACUAUGACACGCAAAACGCGUGCUCCGUUGAAUGGAGUUUAUCAUG

Variants of: B1
Assay: polymerase ribozyme fitness, log enrichment relative to wild type (log ratio); higher = more active; in vitro selection for triplet polymerase activity
In short: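 A single round of triplicate in vitro selection, including frozen incubation at −7 °C, was applied to PCR-built, transcribed mutant libraries of each subunit of a heterodimeric triplet polymerase ribozyme. Illumina sequencing of input and output libraries retained genotypes with ≥10 input reads and ≥1 read per output. Fitness is the base-2 logarithm of genotype enrichment divided by wild-type enrichment, from inverse-variance-weighted replicate averages.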

| Variant | polymerase ribozyme fitness (log ratio) |
| --- | --- |
| G11A A12G A52U G59A A60C | ≤ -4.2 |
| C10G G59A G140U | ≤ -4.2 |
| G11A U15G C54U A60U G81C A107G | ≤ -4.2 |
| C10G C43U C95U | ≤ -4.2 |
| C10U G74C G88C A110G | ≤ -4.2 |
| U9G G50A A142C | ≤ -4.2 |
| U9G A39C U55A A91G A120C G141A U144G | ≤ -4.2 |
| U9C U55A C85U | ≤ -4.2 |
| C10G A89U C93G | ≤ -4.2 |
| C10U C36U G81A C95A U146A | ≤ -4.2 |
| U9G A49U C85U | ≤ -4.2 |
| C10U C43U C63U C69U C76A G94U C103A | ≤ -4.2 |
| C10G A22G A39U U109C | ≤ -4.2 |
| U9G G88C C99A A119U | ≤ -4.2 |
| U9G A20C A29U C35U A47C C54U U56A C96A U130G | ≤ -4.2 |
| G11A A49C G86U A137G | ≤ -4.2 |
| G11A C14A U15G A16C A17C G42U C96U C131A G143A | ≤ -4.2 |
| C10U U77C C85G A89G A120C | ≤ -4.2 |
| C10U A91U C96A A98U A142G U151C | ≤ -4.2 |
| C10G A47U C54A C72U G81A G92C G133U U135G | ≤ -4.2 |
| C10U G42C C69A | ≤ -4.2 |

| Variant | polymerase ribozyme fitness (log ratio) |
| --- | --- |
| C10A A16C A49U A98U A107C C116A U145A | ≤ -4.2 |
| C10U U13C C75G C93A A113U A142G | ≤ -4.2 |
| C10G A30C U45A C76G U77G C95A A97U U101A C114U U134G | ≤ -4.2 |
| C10G A20U C51U A91U | ≤ -4.2 |
| C10G A17U G58C G59U G81U G92A A106C | ≤ -4.2 |
| C10A A22G G46A C54U C75G G83U C95A | ≤ -4.2 |
| C10G C35G U55A C72A C85U G133C U144C | ≤ -4.2 |
| C10U C14G A19U A30U A47G C87G C93A A150U | ≤ -4.2 |
| C10U C27U U102G C129A A137U | ≤ -4.2 |
| G11C A40C G83U A119G | -2.65 |
| C10U U134G | ≤ -4.2 |
| U9G G11C C76A G92C U134C U139G A150G | ≤ -4.2 |
| C10A A19C A29U C36U C57U G58A A66C G67C U82G G84U U109A | ≤ -4.2 |
| C10A A16G C54U C85A C95U U135A | ≤ -4.2 |
| C10U A29G G59A G81A A97G | ≤ -4.2 |
| U9G A20C G58C C96U | ≤ -4.2 |
| C10G C63U | ≤ -4.2 |
| C10U C35A A60G U78G G94U A107G A121U G140C G143C U146G | ≤ -4.2 |
| U9G C38A G62C G68C C76U C114U A120C G143A | ≤ -4.2 |
| C10G A20G A40U G94U C125U G133U | ≤ -4.2 |
| G11A C96A A97G G126U G140U | ≤ -4.2 |

| Variant | polymerase ribozyme fitness (log ratio) |
| --- | --- |
| C10U U13C A17U C76A C105U | ≤ -4.2 |
| C10A C32A U56G G80C U82G C87U A98U | ≤ -4.2 |
| U9G A19C C27A G42U C85U C87U C96A C108G G128U | ≤ -4.2 |
| G11A C14G A73U G84U A110C C118U | ≤ -4.2 |
| C10G G59C A91U U145C | ≤ -4.2 |
| C10G U13C C85G U109G A115U G140U | ≤ -4.2 |
| U9G C10U A16G C35A C87U A89G | ≤ -4.2 |
| C10U C14G A28U C57U A60G G94C U148C | ≤ -4.2 |
| G11A A28C C69G A91U C95G | ≤ -4.2 |
| C10G G50C A73U C85U C118G C131A | ≤ -4.2 |
| C10A A49C U55A G59A | ≤ -4.2 |
| C10G A26C C93A C116U C125G U134C | ≤ -4.2 |
| C10A U56A G59C C85U G86A G92A | ≤ -4.2 |
| C10A G92A | -4.08 |
| G11A U56A A73G G80A C87A | ≤ -4.2 |
| C10G G42U G58A G86U A97U U101G G141C | ≤ -4.2 |
| U9G C10U A37C C43U G68C C76G C93G G140U | ≤ -4.2 |
| G11C A16U C32G C36U G65U G71C G86U U90A U104A U109G U144C | ≤ -4.2 |
| C10A A23C G25C G92A A113U G133C G141U U146C | ≤ -4.2 |
| C10U A64U G65A G71A G74U G84A C93G | ≤ -4.2 |
| G11A C75G C93U | ≤ -4.2 |

| Variant | polymerase ribozyme fitness (log ratio) |
| --- | --- |
| C10U A30U A49C C87U A89G C95G U104C C116U A119U G136C | ≤ -4.2 |
| U9G A39U G68C C87G U109C | ≤ -4.2 |
| C10U A26U C35U C54U A60C C95A C99U C103G A142U | ≤ -4.2 |
| G11A C32U G71A A137G A138G | ≤ -4.2 |
| G11A A20U C87G C118U A150G | ≤ -4.2 |
| C10G A21C A60C C79U C85G A98U A110C C129G | ≤ -4.2 |
| C10A A23U C35G C95G G128A | ≤ -4.2 |
| C10U G50U C51G C93U C114U | ≤ -4.2 |
| C10A C32G U44G C57U U82G G83A | ≤ -4.2 |
| C10U G34U G50A A66C G133C | ≤ -4.2 |
| G11C A12U C14A A28G A52C G62C U78A G112C | ≤ -4.2 |
| U9G A49C G68A C93U | ≤ -4.2 |
| G11A A37U C79U G83A A106U | ≤ -4.2 |
| C10U A17C C76U C85A C95G C96U G133U A137U U148A | ≤ -4.2 |
| G11A A37C U56G G83A U145G | -3.73 |
| C10G G58A G59C G65A C95G C96A A120C | ≤ -4.2 |
| G11A C54U U55A G74A A89G G92C C105G G112A U144G | ≤ -4.2 |
| C10G A40U C43A C125G G133A | ≤ -4.2 |
| G11C A40G G84A A97C G126A | ≤ -4.2 |
| G11A U104A A119U G136A U144A | -2.19 |
